Screen size: about 120,000 compounds; about 5,300 (4.4%) were called active. The shares of active, inactive and inconclusive entries below differ from those in the screen. Calls come from the whole dose curve; as a rule, active = well fitted inhibition curve with a large enough effect; inconclusive = small, poorly fitted or top-dose-only effect; inactive = no such curve, though single readings can be large or run the other way. A potency beside an inconclusive call is a rough fit, not a confirmed value.
Assay: qHTS Primary assay for Inhibitors of Plasmodium falciparum Dd2 growth in vitro; note: nearly all actives have a fitted effect of over 65% in size
Details: P. falciparum Dd2 growth, SYBR Green, 72 h; series mostly up to 28.9 µM
Outline: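 Readout: SYBR Green fluorescence, 485 nm excitation, 535 nm emission, after ~16 h lysis at 37C. Before that, Dd2-infected red cells (2.5% hematocrit) grew 72 h with compound, 29 uM top final concentration.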
Potency is the fitted concentration of half-maximal effect; tags give direction and shape of the fitted curve.

Row | SMILES | Potency
1 | COc1ccc(C(=O)Nc2ccc([C@H]3OCC(=O)N(Cc4cccnc4)[C@@H]3CO)cc2)cc1 | inactive
2 | COCC1(CNCc2ccc(F)cc2)C[C@@H](O)[C@@H](O)C1 (stereo partly specified) | inactive
3 | O=C(Nc1ccc2c(N3CCOCC3)ncnc2c1)c1ccc(Br)o1 | inconclusive: 0.562 µM [inhibitor, full curve, poor fit]
4 | CCN(CC)C(=O)C(C)[C@@H]1CC[C@@]2(C)CC[C@H](NC(C)=O)[C@@H](C)[C@@H]2[C@H]1O (stereo partly specified) | inactive
5 | COc1ccc(Cl)cc1NC(=O)CSC1=Nc2ccccc2C2=NC(CC(=O)NC3CCCCC3)C(=O)N12 (stereo unspecified) | inconclusive: 12.6 µM [inhibitor, partial curve]
6 | O=C(CSc1nc2c(sc3ccccc32)c(=O)n1CCCC(=O)NC1CCCC1)Nc1ccc(F)cc1 | inconclusive: 11.2 µM [inhibitor, single point]
7 | Oc1cccc(-c2cc(C3=CCOCC3)c3cncn3c2)c1 | inconclusive: 17.8 µM [inhibitor, single point]
8 | Cc1noc(C)c1-c1cc2cc(C(C)C)oc2c(-c2ccnn2C)n1 | inconclusive: 2.24 µM [inhibitor, full curve, poor fit]
9 | O=C(NCc1ccc(F)cc1)C1CCCN(c2ncnc3onc(-c4ccc(F)cc4)c23)C1 (stereo unspecified) | inconclusive: 10 µM [inhibitor, single point]
10 | COc1cccc(-n2c(SCC(=O)Nc3cccc(Cl)c3)nc3c(oc4ccccc43)c2=O)c1 | inconclusive: 11.2 µM [inhibitor, single point]
11 | COc1ccc(/C=C\C(=O)NC2CC(=O)N(c3ccc(F)cc3)C2)cc1OC (stereo unspecified) | inactive
12 | COCCNc1cc(-c2noc([C@@H]3CCCN3Cc3ccccn3)n2)ccn1 | inactive
13 | CN(C)c1ccc(-c2nc(C3CC(=O)N(c4ccc(Cl)cc4)C3)no2)cc1 (stereo unspecified) | inactive
14 | CCc1ccccc1NC(=O)[C@H]1CCC[C@H]1NC(=O)c1ccc(OC)nc1 | inconclusive: 11.2 µM [inhibitor, single point]
15 | Cc1nn2c(c1-c1ccccc1-c1ccccc1)N(Cc1ccccc1)CCC2 | inconclusive: 0.282 µM [inhibitor, partial curve, poor fit]
16 | Cc1cnc(CCNC(=O)c2n[nH]c(=O)c3ccccc23)n1C1CCC1 | inactive
17 | O=C(O)c1ccc(C2CCCN(C(=O)c3cccc(N4CCOCC4)c3)C2)cc1 (stereo unspecified) | inactive
18 | COCCN1C(=O)c2cccn2CC1CNC(=O)c1cc2ccccc2[nH]1 (stereo unspecified) | inconclusive: 10 µM [inhibitor, single point]
19 | CCOc1ccc(OC(=O)c2cn(-c3cccc(OC)c3)c(=O)c3ccccc23)cc1 | inconclusive: 12.6 µM [inhibitor, single point]
20 | CC1CCN(C(=O)c2cc3c(=O)n(C)c4ccccc4c3s2)CC1 | inconclusive: 7.08 µM [inhibitor, partial curve, poor fit]
21 | O=C(O)CCC(=O)N1Cc2[nH]cnc2C[C@H]1c1nc(-c2ccc(OC(F)(F)F)cc2)no1 | inactive

Row | SMILES | Potency
22 | CC(C)CC(=O)Nc1ccnn1C1CCN(C(=O)c2cc(-c3ccccc3)n[nH]2)CC1 | inconclusive: 20 µM [inhibitor, partial curve, poor fit]
23 | c1ccc(Nc2cc3c(cn2)NCCN(Cc2ccc4[nH]ccc4c2)C3)cc1 | inconclusive: 10 µM [inhibitor, partial curve]
24 | COc1ccccc1NC(=O)C1=C(C)Nc2nc(SCc3ccc(Cl)cc3)nn2C1c1ccccc1Cl (stereo unspecified) | inconclusive: 14.1 µM [inhibitor, single point]
25 | O=C1NCCCN1C1CCN([S+](=O)([O-])c2cccc(C(F)(F)F)c2)CC1 | inconclusive: 3.98 µM [inhibitor, single point]
26 | CCOc1ccccc1CN1CCN(c2cccc(C#N)n2)CC1CCO (stereo unspecified) | inconclusive: 8.91 µM [inhibitor, partial curve, poor fit]
27 | O=C1CN(Cc2ccc(-c3ccccc3)cc2)CCN1c1cc(Cl)ncn1 | inconclusive: 0.224 µM [inhibitor, full curve, poor fit]
28 | O=C(c1cccc(OC(F)(F)F)c1)N1CCC(N2CC3CC(C2)[C@H]2CCCC(=O)N2C3)CC1 (stereo partly specified) | inconclusive: 17.8 µM [inhibitor, single point]
29 | CCN(CC)C(=O)c1ccc(Nc2nnc(-c3ccc(C)c(S(=O)(=O)NC)c3)c3ccccc23)cc1 | active: 3.16 µM
30 | CC(=O)N(C1CCOCC1)C1CCN(C(=O)NCc2ccc(OC(F)(F)F)cc2)CC1 | inconclusive: 20 µM [inhibitor, single point]
31 | CCn1ccc(C(=O)N2CCCCCNC(=O)[C@H]3C[C@H](C(=O)N4CCc5ccccc5C4)C[C@H]32)n1 | inconclusive: 14.1 µM [inhibitor, partial curve, poor fit]
32 | C=CCNC(=O)CCc1c(C)nn(-c2ccccc2)c1Oc1ccccc1F | inactive
33 | COc1cccc(CN2C(=O)OC3(CCN(C(=O)C4CCC(OC)CC4)CC3)C2(C)c2cccnc2)c1 (stereo unspecified) | inconclusive: 7.08 µM [inhibitor, partial curve, poor fit]
34 | CCOC(=O)c1c(C)n(-c2ccccc2)c2ccc(OC(=O)c3cccc(OC)c3OC)cc12 | inconclusive: 20 µM [inhibitor, single point]
35 | Cn1nccc1CN1CCn2c(nnc2C2CCCNC2)C1 (stereo unspecified) | inactive
36 | COc1ccccc1C1=NOC(C(=O)NC(C)(C)C)C1 (stereo unspecified) | inactive
37 | O=C(NCc1cccs1)c1ccc(CSc2nc3cccnc3n2Cc2ccccc2F)cc1 | inconclusive: 8.91 µM [inhibitor, single point]
38 | CC(=O)N1Cc2ccccc2CC2(CCCN2CCc2ccccc2)C1 (stereo unspecified) | inconclusive: 10 µM [inhibitor, single point]
39 | O=C(Cc1ccc(F)cc1)N1CCC(n2cc(-c3nc(-c4ccccc4)no3)nn2)CC1 | inconclusive: 0.224 µM [inhibitor, partial curve, poor fit]
40 | CCc1nc(C)c(CC(=O)N[C@@H]2CCNC[C@H]2O)c(=O)[nH]1 | inactive
41 | O=C(COc1ccc(F)cc1)Nc1ccc2nc(SCC(=O)N3CCOCC3)sc2c1 | inconclusive: 11.2 µM [inhibitor, partial curve, poor fit]

— PubChem BioAssay AID1347417 (National Center for Advancing Translational Sciences (NCATS), 2020)
